# Assay results reported in PubChem BioAssay (NCATS).
# Inconclusive means that the source gave no clear call. Such entries were picked first, then a sample of the others. Potencies of inconclusive entries are doubtful fits and often do not repeat. The source made the active and inactive calls. The call rests on the fitted dose curve; in most records, active means well fitted cell-killing curve with a large enough effect; inconclusive means small, poorly fitted or top-dose-only effect, or effect the other way; inactive means flat fitted curve, though single readings scatter.
# System: SKOV3
# Assay: Primary qHTS to identify gynecologic anti-cancer compounds using libraries of approved drugs and bioactive compounds (AID 1345084); further: nearly all actives have a fitted effect of over 55% in size
# Conditions: Gynecologic cancer cell panel viability, ATPlite luminescence, 48 h; series mostly up to 57.5 µM; activity change, negative = cytotoxicity: at the top concentration
# Method in brief: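 Cells, 1,000 per well, were allowed to settle for 16 h at 37 C before compound addition. Five concentrations were tested for 48 h, and viability was read by ATPlite luminescence after 15 min at room temperature.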
# On the % scale 0 is the no-effect control and ±100 the full control effect; potency means the concentration at half of the fitted maximal effect; tags describe the fitted curve by direction and shape.
SMILES,Potency,"activity change, negative = cytotoxicity"
CCN1CCc2nc(N)oc2CC1,"inconclusive: 3.55 µM [rising, partial curve, poor fit]",–
OC[C@@H](O)[C@H](O)[C@H](O)[C@@H](O)CO,"inconclusive: 6.31 µM [rising, partial curve, poor fit]",–
C[C@]12CCC(=O)C=C1CC[C@H]1[C@@H]3CC[C@](O)(C(=O)CO)[C@@]3(C)C[C@H](O)[C@@]12F,–,inactive: -1.81%
NC(=O)N1c2ccccc2C=Cc2ccccc21,"inconclusive: 0.251 µM [cytotoxic, full curve, poor fit]",–
COc1ccccc1[C@H](c1cccc2ccccc12)[C@@](C)(C#N)C(=O)N1CCC(c2cccc(C(F)(F)F)c2)CC1,"inconclusive: 2.51 µM [rising, partial curve]",–
Cn1c(=O)c(-c2c(Cl)cccc2Cl)cc2cnc(Nc3cccc(C(=O)O)c3)nc21,"inconclusive: 1.12 µM [cytotoxic, single point]",–
COc1cc2ncnc(Nc3cccc(Cl)c3)c2cc1OC,"inconclusive: 39.8 µM [cytotoxic, partial curve, poor fit]",–
CCN1CCC[C@H]1CNC(=O)c1c(OC)ccc(Br)c1OC,"inconclusive: 5.01 µM [rising, full curve, poor fit]",–
CCCc1cc(C(N)=S)ccn1,–,inactive: 0.128%
C[C@@H]1C[C@H]2[C@@H]3CCC4=CC(=O)C=C[C@]4(C)[C@@]3(F)[C@@H](O)C[C@]2(C)[C@@]1(O)C(=O)CO,–,inactive: 11.7%
O=S(=O)(O)c1ccc2nc(-c3ccccc3)[nH]c2c1,–,inactive: 1.66%
